Reference: patent publication US20140308201A1 (Novartis, published 2014)

Legend:
[1] = target: T1, Cynomolgus monkey FGFR2 IIIb D1-3 (cynomolgus monkey); test: SPR Biacore, method as Example 2
T1 construct: also called Cyno FGFR2 IIIb
T1 chain: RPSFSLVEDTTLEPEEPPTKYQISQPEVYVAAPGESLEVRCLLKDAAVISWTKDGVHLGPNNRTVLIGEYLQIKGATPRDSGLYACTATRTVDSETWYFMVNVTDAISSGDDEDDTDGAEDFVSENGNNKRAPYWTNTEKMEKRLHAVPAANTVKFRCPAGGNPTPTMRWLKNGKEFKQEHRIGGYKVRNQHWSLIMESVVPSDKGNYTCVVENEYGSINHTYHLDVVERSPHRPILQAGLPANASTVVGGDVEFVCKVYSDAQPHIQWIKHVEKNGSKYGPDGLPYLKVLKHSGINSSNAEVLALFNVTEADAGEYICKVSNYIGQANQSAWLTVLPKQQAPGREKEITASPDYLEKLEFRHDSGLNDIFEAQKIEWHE

Human FGFR2 IIIb D1-3 [2] = target: T2, Human FGFR2 IIIb D1-3 (human); test: SPR Biacore, method as Example 2
T2 construct: Extracellular domains D1-3 with C-terminal tag, made in HEK293T; also called recombinant human FGFR2 IIIb; hFGFR2
T2 chain: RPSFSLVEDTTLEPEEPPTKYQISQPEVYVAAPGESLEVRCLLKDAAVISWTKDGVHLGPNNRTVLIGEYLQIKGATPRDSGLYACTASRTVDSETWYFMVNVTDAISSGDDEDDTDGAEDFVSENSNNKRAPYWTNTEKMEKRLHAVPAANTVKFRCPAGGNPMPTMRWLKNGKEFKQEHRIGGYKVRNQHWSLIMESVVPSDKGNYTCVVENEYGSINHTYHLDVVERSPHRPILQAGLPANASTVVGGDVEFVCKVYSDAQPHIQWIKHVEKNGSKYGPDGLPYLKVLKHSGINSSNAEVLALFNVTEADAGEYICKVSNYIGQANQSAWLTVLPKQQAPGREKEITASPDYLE

Human FGFR2 IIIb D1-3 [3] = target: T2, Human FGFR2 IIIb D1-3; test: SPR Biacore, method as Example 2
Mouse FGFR2 IIIb D1-3 [4] = target: T3, Mouse FGFR2 IIIb D1-3 (mouse); test: SPR Biacore, method as Example 2
T3 construct: Extracellular domains with C-terminal tag

Human FGFR2 IIIb D1-3 [5] = target: T2, Human FGFR2 IIIb D1-3; test: SPR Biacore, IgG captured via anti-human Fc, soluble FGFR as analyte
Mouse FGFR2 IIIb D1-3 [6] = target: T3, Mouse FGFR2 IIIb D1-3; test: as above
[7] = target: T1, Cynomolgus monkey FGFR2 IIIb D1-3; test: as above
Human FGFR4 ECD = target: T4, Human FGFR4 ECD (human, UniProt P22455 22-369); test: screening of panning outputs for specificity and cross-reactivity (assays of Example 1)
T4 construct: Extracellular domain with C-terminal tag

B1: 12433-MCC-DM1 (other)
heavy: QVQLVQSGAEVKKPGESLKISCKGSGYSFTNYYIHWVRQMPGKGLEWMGAIYPDNSDTTYSPSFQGQVTISADKSISTAYLQWSSLKASDTAMYYCARGADIWGQGTLVTVSSASTKGPSVFPLAPSSKSTSGGTAALGCLVKDYFPEPVTVSWNSGALTSGVHTFPAVLQSSGLYSLSSVVTVPSSSLGTQTYICNVNHKPSNTKVDKRV[human IgG1 Fc cut from this listing]
light: DIQMTQSPSSLSASVGDRVTITCRASQDIDPYLSNWYQQKPGKAPKLLIYDASNLQSGVPSRFSGSGSGTDFTLTISSLQPEDFATYYCQQTTSHPYTFGQGTKVEIKRTVAAPSVFIFPPSDEQLKSGTASVVCLLNNFYPREAKVQWKVDNALQSGNSQESVTEQDSKDSTYSLSSTLTLSKADYEKHKVYACEVTHQGLSSPVTKSFNRGEC
modifications: DM1 linked through MCC (SMCC) linker to lysine residues, sites not given; DM1 linked through MCC (SMCC) linker to lysine residues, sites not given, MAR 3.4
B1 was tested. Which Kd [1] did it give?
Its Kd is 1.5 nM.

B2: mAb12425 (antibody, human IgG1, kappa)
heavy: QVQLLESGGGLVQPGGSLRLSCAASGFTFSDYAMSWVRQAPGKGLEWVSVIEGDGSYTHYADSVKGRFTISRDNSKNTLYLQMNSLRAEDTAVYYCAREKTYSSAFDYWGQGTLVTVSSASTKGPSVFPLAPSSKSTSGGTAALGCLVKDYFPEPVTVSWNSGALTSGVHTFPAVLQSSGLYSLSSVVTVPSSSLGTQTYICNVNHKPSNTKVDKRV[human IgG1 Fc cut from this listing]
light: DIQMTQSPSSLSASVGDRVTITCRASQDISSDLNWYQQKPGKAPKLLIYDASNLQSGVPSRFSGSGSGTDFTLTISSLQPEDFAVYYCQQHYSPSHTFGQGTKVEIKRTVAAPSVFIFPPSDEQLKSGTASVVCLLNNFYPREAKVQWKVDNALQSGNSQESVTEQDSKDSTYSLSSTLTLSKADYEKHKVYACEVTHQGLSSPVTKSFNRGEC
notes: HuCAL human IgG1
B2 was tested. Which Kd (Human FGFR2 IIIb D1-3 [2]) did it give?
Its Kd is 2.1 nM.

What about the Kd (Human FGFR2 IIIb D1-3 [3]) of the same binder?
The Kd was 2.1 nM.

What about the Kd (Mouse FGFR2 IIIb D1-3 [4]) of the same binder?
Its Kd is 3.2 nM.

And the Kd [1]?
Its Kd is 1.6 nM.

And the Kd (Human FGFR2 IIIb D1-3 [5])?
The Kd was 14 nM.

What about the Kd (Mouse FGFR2 IIIb D1-3 [6]) of the same binder?
The Kd was 16 nM.

And the Kd [7]?
Its Kd is 12 nM.

Does B2 bind (Human FGFR4 ECD)?
Result: binds

B3: 12425-MCC-DM1 (other)
heavy: B2 heavy
light: B2 light
modifications: DM1 linked through MCC (SMCC) linker to lysine residues, sites not given; DM1 linked through MCC (SMCC) linker to lysine residues, sites not given, MAR 3.5-3.6
How did the Kd (Human FGFR2 IIIb D1-3 [2]) turn out when B3 was run?
Its Kd is 2.3 nM.

What about the Kd (Human FGFR2 IIIb D1-3 [3]) of the same binder?
The Kd was 2.3 nM.

And the Kd [1]?
The Kd was 1.9 nM.
